Results reported in ChEMBL document CHEMBL4888484, “Replenishing the malaria drug discovery pipeline: Screening and hit evaluation of the MMV Hit Generation Library 1 (HGL1) against asexual blood stage Plasmodium falciparum ,using a nano luciferase reporter read-out” (2022).
Hit rate of the full screen: of about 150,000 compounds, about 540 (0.36%) showed an effect of 50% or more. The list shows a part of the results.

Test system: Plasmodium falciparum
Test: Primary screen in NF54 nanoGlo assay, in single point, at 2uM, 72h; a lower Z score goes with more inhibition
Assay type: functional, Erythrocyte
Conditions: timepoint 72 hour

| SMILES | % Inhibition [%] | Z score |
| --- | --- | --- |
| O=C(NCC1CCN(C(=O)Oc2ccccc2)CC1)Nc1ccccc1 | -11 | 1.68 |
| CCCCOC(=O)N1CCN2CCN(C)C[C@H]2C1 | 3 | -0.41 |
| CC(C)(Oc1cc(Cl)ccc1Cl)C(=O)N1CCC2(CC1)OCCO2 | -12 | 1.63 |
| CN(C(=O)Oc1c(Cl)cc(Cl)c2ccccc12)c1ccccc1 | 6 | -1.12 |
| CC(NCc1ccc(O)nc1)C(c1ccccc1)N(C)C (stereo not drawn) | -10 | 0.98 |
| COc1ccnc(CN2CCN3C(=O)OC[C@H]3C2)c1OC | 10 | -1.22 |
| COc1ccc(N2C[C@@H](C(=O)N3CCC4(CC3)OCCO4)CC2=O)cc1 | 0 | 0.04 |
| CC(C)n1ccc(C(=O)Nc2ccc(OCC3CC3)cc2)n1 | 2 | -0.27 |
| CCNc1ccnc(-c2cccc(C(=O)N[C@H]3COC[C@@H]3N3CCCC3)c2)n1 | -12 | 2.23 |
| COc1ccc(Cl)cc1N1C(=O)[C@@H]2C[C@H]1CN2Cc1cccnc1 | -2 | 0.21 |
| Cc1cc(C)cc(CC(C)NC(=O)N[C@@H](C)C(=O)N(C)C)c1 (stereo partly drawn) | -7 | 0.92 |
| O=C(O)[C@@]12COc3ccccc3[C@@H]1CN(CCS(=O)(=O)c1ccccc1)C2 | -17 | 2.69 |
| O=c1[nH]c2cccc(CN3CCOCC34CCC4)c2o1 | -7 | 1.07 |
| O=C([C@H]1CC12CC2)N1CCC(c2n[nH]c(=O)o2)CC1 | 4 | -0.81 |
| COc1cccc2c1OC[C@@]1(C(=O)O)CN(CCC(F)(F)C(F)F)C[C@@H]21 | -18 | 1.92 |
| Cc1noc(C)c1C(C)(C)C(=O)NCCc1nc(=O)o[nH]1 | -10 | 1.75 |
| CC(C)(C)c1nc(CN2C3CCC2c2ccccc23)no1 | 22 | -2.84 |
| Cc1cc(CC(C)C)nc(N2CC[C@@]3(C2)NCCc2[nH]cnc23)n1 | -3 | 0.48 |
| O=C(Nc1ccc(=O)n2c1[C@@H]1C[C@@H](CN(C(=O)c3ccc(F)cc3)C1)C2)c1cncnc1 | 9 | -1.12 |
| CC(=O)Nc1ccc(-c2c(C#N)c(N)nc3c2[C@@H]2CCC[C@H](C3)N2C)cc1 | -5 | 0.65 |
| CN(CC(C)(C)O)S(=O)(=O)c1ccc(C#N)c(C(F)(F)F)c1 | -14 | 1.61 |
| c1cc2c(c(-c3cncnc3)c1)CCNC2 | -7 | 0.93 |
| Cc1ccc(F)c(C(=O)N2CCN([C@H]3CN4CCC3CC4)CC2)c1Cl | -9 | 0.86 |
| Cc1c(C(=O)N2CCN([C@H]3CN4CCC3CC4)CC2)[nH]c2c(F)cccc12 | -27 | 2.57 |
| CO[C@H]1C[C@H]2CC[C@@H](C1)N2CCOCc1ccccc1 | -5 | 0.88 |
| CC(C)Cc1ccc(CN2[C@@H]3CC[C@H]2C[C@@H](O)C3)s1 | 21 | -2.68 |
| c1ccc2[nH]c(C3CC4CCCCC4N3)nc2c1 (stereo not drawn) | 11 | -0.9 |

| SMILES | % Inhibition [%] | Z score |
| --- | --- | --- |
| O=C(Cc1ccc2c(c1)OCO2)N1CC(N2CCc3sccc3C2)C1 | -8 | 1.42 |
| CCCn1cc(C(=O)Nc2ccc3c(c2)OCCO3)c2cccnc21 | -1 | 0.08 |
| CN(C)S(=O)(=O)Nc1cccc(OC(=O)N2CCOCC2)c1 | 36 | -5.14 |
| N#CC1CNCC12C(=O)Nc1ccccc12 (stereo not drawn) | 1 | -0.11 |
| C(#CCN1CCCCC1)COC/C=C/c1ccccc1 | -5 | 0.93 |
| CS(=O)(=O)Cc1nc(CN2C3CCC2c2ccccc23)cs1 | -10 | 1.38 |
| COCC1(C(=O)N2C[C@@H](c3cccc(OC)c3)[C@@H]3[C@H]2C2CCN3CC2)CCC1 | -5 | 0.89 |
| O=C(COc1ccccc1Cl)N1C[C@H]2CC[C@@H](C1)N(CC1CC1)C2 | -5 | 0.56 |
| CN(CCc1ccccn1)C[C@H]1C[N@@]2CC[C@H]1C[C@@H]2CNS(=O)(=O)c1ccc(Cl)cc1 | 27 | -3.1 |
| CCN(CC)C(=O)c1ccc2c(c1)N(CC(=O)N1CCC3(CC1)OCCO3)C(=O)CO2 | 3 | -0.45 |
| CCc1c(C(=O)N[C@H]2COc3cccc(F)c32)cnn1CC(C)C | -16 | 2.26 |
| O=c1[nH]c2ccc(NS(=O)(=O)c3ccccc3Cl)cc2o1 | 14 | -2.07 |
| N#Cc1cccnc1N1C[C@H](c2ccccc2)[C@@H]2[C@H]1C1CCN2CC1 | 7 | -1.41 |
| CN(C)c1ccnc(N2C[C@@H](c3ccc4c(c3)OCO4)[C@@H]3[C@H]2C2CCN3CC2)n1 | -7 | 0.91 |
| Cc1ccc2c(c1)C[C@]1(CN2C)C(=O)NC(=O)N(C2CCCCCC2)C1=O | 28 | -3.12 |
| CC(=O)[C@H](C#N)c1c(Cl)cccc1Cl | -24 | 2.22 |
| CC(C)(C)OC1CC(N2C[C@H](O)C3(CC3)C2)C1 (stereo partly drawn) | 2 | -0.17 |
| O=C(c1ccc2[nH]c3c(c2c1)CCCC3)N1CC1 | -7 | 1.42 |
| CN1CCN(CC(=O)N2CCC3(CC2)OCCO3)c2ccc(Cl)cc21 | -13 | 2.46 |
| COc1ccc(N2C(=O)NC(=O)C3(Cc4cccc(F)c4N4CCOCC43)C2=O)cc1 (stereo not drawn) | -5 | 0.72 |
| CCOc1cc(C(=O)N2CCC[C@H]3CN(C)C[C@H]32)ccn1 | -4 | 0.62 |
| NC1(c2nc(C[C@H]3CCCO3)no2)CCCCC1 | -1 | 0.14 |
| Cc1ncccc1CNC1CCC(F)C1 (stereo not drawn) | 2 | -0.25 |
| O=C(N[C@H]1COC[C@@H]1N1CCOCC1)c1cc(Cl)c[nH]1 | -7 | 1.15 |
| C[C@@H](Cn1cc(Br)cn1)NCCCN(C)CC(F)(F)F | -14 | 1.27 |
| Cc1c[nH]nc1CN1C[C@@H](CO)[C@H](c2ccc(Cl)cc2)C1 | 8 | -1.39 |
| O=c1ccc(-c2ccc(OC(F)(F)F)cc2)c2n1C[C@@H]1CNC[C@H]2C1 | -2 | 0.31 |
